The other results are listed elsewhere or left out. The list includes weakly bound sequences.
Each sequence was assayed against T1, MBP-FoxP3dN (UniProt Q99JB6) (assay: PD-seq (MBP pull-down with sequencing)). Settings: 20 mM Tris-HCl pH 7.5, 100 mM NaCl, 1.5 mM MgCl2, 0.4 uM protein, 0.1 uM dsDNA library, 30 min, room temperature, amylose pull-down; high values mean tight binding; double strand, one strand shown.
T1 sequence: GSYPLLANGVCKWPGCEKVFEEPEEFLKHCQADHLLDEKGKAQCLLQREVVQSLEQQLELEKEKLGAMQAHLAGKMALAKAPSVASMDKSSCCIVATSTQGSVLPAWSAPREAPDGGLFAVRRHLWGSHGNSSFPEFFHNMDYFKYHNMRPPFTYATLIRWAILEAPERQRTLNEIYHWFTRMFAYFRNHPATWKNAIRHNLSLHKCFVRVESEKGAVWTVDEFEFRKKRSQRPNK

| Sequence | binding signal (RPM ratio (pull-down/input)) |
| --- | --- |
| GATGATTGTTCTCCCAGCTGATGAATTACTCTTTTCGAGTAAACAAATTTTCCTAATCTTTCTGTTCAAGCGCCATCTAC | 0.279 |
| GATGATTGTTCTCCCAGCTGATGAATTGTACCAATCGAGTAAACAAATTTTCCTAATCTTTCTGTTCAAGCGCCATCTAC | 0.507 |
| GATGATTGTTCTCCCAGCTGATGAATTAAGAAAGTCGAGTAAACAAATTTTCCTAATCTTTCTGTTCAAGCGCCATCTAC | 0.179 |
| GATGATTGTTCTCCCAGCTGATGAATTCAGACAATCGAGTAAACAAATTTTCCTAATCTTTCTGTTCAAGCGCCATCTAC | 0.311 |
| GATGATTGTTCTCCCAGCTGATGAATTGGATAGATCGAGTAAACAAATTTTCCTAATCTTTCTGTTCAAGCGCCATCTAC | 0.266 |
| GATGATTGTTCTCCCAGCTGATGAATTGTGAAAGTCGAGTAAACAAATTTTCCTAATCTTTCTGTTCAAGCGCCATCTAC | 0.279 |
| GATGATTGTTCTCCCAGCTGATGAATTTCAAGGCTCGAGTAAACAAATTTTCCTAATCTTTCTGTTCAAGCGCCATCTAC | 0.197 |
| GATGATTGTTCTCCCAGCTGATGAATTGGATGCATCGAGTAAACAAATTTTCCTAATCTTTCTGTTCAAGCGCCATCTAC | 2.68 |
| GATGATTGTTCTCCCAGCTGATGAATTGGGGTGCTCGAGTAAACAAATTTTCCTAATCTTTCTGTTCAAGCGCCATCTAC | 0.503 |
| GATGATTGTTCTCCCAGCTGATGAATTGAATTTGTCGAGTAAACAAATTTTCCTAATCTTTCTGTTCAAGCGCCATCTAC | 1.66 |
| GATGATTGTTCTCCCAGCTGATGAATTATGTTCCTCGAGTAAACAAATTTTCCTAATCTTTCTGTTCAAGCGCCATCTAC | 1.46 |
| GATGATTGTTCTCCCAGCTGATGAATTTTATGTGTCGAGTAAACAAATTTTCCTAATCTTTCTGTTCAAGCGCCATCTAC | 2.49 |
| GATGATTGTTCTCCCAGCTGATGAATTTGGAGTATCGAGTAAACAAATTTTCCTAATCTTTCTGTTCAAGCGCCATCTAC | 0.673 |
| GATGATTGTTCTCCCAGCTGATGAATTAGGAATCTCGAGTAAACAAATTTTCCTAATCTTTCTGTTCAAGCGCCATCTAC | 1.47 |
| GATGATTGTTCTCCCAGCTGATGAATTTTTCTTCTCGAGTAAACAAATTTTCCTAATCTTTCTGTTCAAGCGCCATCTAC | 0.273 |
| GATGATTGTTCTCCCAGCTGATGAATTCCTATGTTCGAGTAAACAAATTTTCCTAATCTTTCTGTTCAAGCGCCATCTAC | 0.495 |
| GATGATTGTTCTCCCAGCTGATGAATTCGCCTTGTCGAGTAAACAAATTTTCCTAATCTTTCTGTTCAAGCGCCATCTAC | 0.828 |
| GATGATTGTTCTCCCAGCTGATGAATTCAGATGGTCGAGTAAACAAATTTTCCTAATCTTTCTGTTCAAGCGCCATCTAC | 0.424 |

— publication PMC12820563
